# In the RNAGym collection of RNA variant scans (doi:10.7554/elife.90254):
# Read counts are not given, so values of variants with three or more changes are uncertain.
# B1: OR4K15 (parent)
# chain: GUUAACGGUCAUAGGCCAUGGAAACUAGGAGCACCAUUUCGCUGCCAGUGAAGAAAUGAACAAAGAAAAUCUGGGCCAGGCAGGCAUCAAAAGAAAUAGUCUUGCGCUCAACCAGAAAGUCUGUAAUCAUUUUAAGGGUA
# Variants of: B1
# Experiment: self-cleavage, relative activity (ratio to wild type); higher = more cleavage; in vitro, sequencing; the parent is a self-cleaving ribozyme
row,Variant,self-cleavage
1,U2C A33G A116G,0.4
2,U2C A62U A67G,0.28
3,U2C A5G A30G,0.63
4,U2C A62G A68C,0.83
5,U2C A60G A63G U130A,0.54
6,U2C A66G U103G A116G,0.05
7,U2C A63U U132C,0.77
8,U2A A60G A66G,1.32
9,U2A U3C A68G A118G,0.89
10,U2C A22G A52G U122C,0.51
11,U2C A55G A69G U122A,1.17
12,U2C A54U A90G U108C,0.03
13,U2C A18U A22G A55U A63G U132C,0.66
14,U2A A47U U102A A116G U124C,0.04
15,U2C A59U G73A,0.12
16,U2C A27G A52G A82G C105G A126G,0.02
17,U2A A63G U130A,0.18
18,U2C A18G A114G,1.1
19,U2A A67G U131C,1.11
20,U2C A56G G93U,1.36
21,U2C A68G A86G A98G U108C,0.02
22,U2A A86G A134U,0.42
23,U2C A47C A60G,0.91
24,U2C A47G A64G A78C U108C,0.02

row,Variant,self-cleavage
1,U2C A68U U87C,1.01
2,U2C A67G A111G,0.07
3,U2A A94G A117G,1.42
4,U2C A62U U120C,1.46
5,U2A U120C A135C A140U,0.49
6,U2C A18G A78G,0.48
7,U2C A59G A129G,0
8,U2A U19C U70A A129U,0.69
9,U2A U9A U38C A60G,0.87
10,U2C A5G A13C C40U A68G A86G A94G,1.23
11,U2A U43G U127C,0.92
12,U2C A59G A118U,0.28
13,U2A U43A U120C,0.94
14,U2C A36U A47G U49C A92G A94G,0.31
15,U2A C61U U124C,1.1
16,U2A A69G U103C A110U,0.93
17,U2C A47G A98G A118U,0.21
18,U2C A30G A52G U124C,0.63
19,U2C A11U A86C U97C A118G,0.09
20,U2C A4G A11G A54G A78G A89U U132C,0.36
21,U2C A54U A92G U102C,1.34
22,U2C A51G U127C,0.35
23,U2C A23G U39G A54G,0.73
24,U2C A68G A90G A98U,0.98

row,Variant,self-cleavage
1,U2A A56G U102C,1
2,U2C A62G A111G,0.02
3,U2A A30G A56G U130C,0.39
4,U2A C113U U130G,0.09
5,U2C A51U A69G,1.01
6,U2A G65A A67G A95U,1.43
7,U2C A24C A96U,1.05
8,U2C A30G A117G,1.19
9,U2A A62G C128A,0.83
10,U2A A27G A55G A111U U122C,0.07
11,U2C A24G U43A A63G U72A A140G,0.64
12,U2A U108C U122C,0.02
13,U2C A51G A56G U72A A94G U108A A116G,0.02
14,U2C A56G U103C,1.32
15,U2C A67G U102C A114C,0
16,U2C A18U U38A A51G A66U U122A,1.01
17,U2C A24C U38A G138A,1.49
18,U2C A33G A126G U131A U132C,0.89
19,U2C A52G U87C,1.12
20,U2C A47U A78G A90G A140U,0.17
21,U2C A18G A62G A68G A82U,0.32
22,U2C A13G U127C U130C,0.61
23,U2C A22G A36G A92G U108C C109U,0.02
24,U2C A64U U87C U133A,0.25

row,Variant,self-cleavage
1,U2A U9C A52G A59U U102C U130C,1.42
2,U2C A30G A86G,0.38
3,U2C A18U G83U A89U,1.17
4,U2C A59G A86G A129G,1.06
5,U2A U70C A126G,0.54
6,U2A G28A A114G,0.41
7,U2C A22G A36G U102A,0.93
8,U2C A23U A67G,1.55
9,U2A U37C A68G U102C,0.85
10,U2C A66U A98G U122C,0.25
11,U2C A22G A33G A91G A118U U132C,0.11
12,U2C A11G U132C,0.55
13,U2C A22G A68G,0.74
14,U2C A67U A86G A110U U132C,2.34
15,U2C A56G A92G U120C,0.38
16,U2A A60U A86U,1.54
17,U2C A11G A13G,0.84
18,U2C A55G G83A A117G A126G A140G,1.02
19,U2C A5U C40U U49C A68G,0.67
20,U2A U43C A54G A62U U87A A111G U130C,0.05
21,U2C A33U A89G U102C A111G,0.04
22,U2C A5G A52G G79A,0.18
23,U2A U57A U124C,1.18
24,U2C A36G A64G A92G,1.59

row,Variant,self-cleavage
1,U2A G29A A118G,0.97
2,U2A A54G A66G A95U,1.63
3,U2C A33C A56G A60U U103A,0.5
4,U2C A22G U57C G75C U87C,0.11
5,U2C A52G A110C A116G U132C,0.04
6,U2A U72C U100G,0.33
7,U2A A96U A116G,1.72
8,U2A U37C U70C A114G U122C,0
9,U2C A18U A54G,1.12
10,U2C A60G A63G A66G U102C U103C U122C A140G,0.13
11,U2A U9C A118G,0.91
12,U2A U9C A22G U87C U100G U131C,1.34
13,U2C A66G A69U,1.1
14,U2C A33U A59G C113U A116G,0.01
15,U2C A13G A52G U108A,0.22
16,U2A G7U A55G A94G U108G C113U,0
17,U2C A66G A98G,0.29
18,U2C A27C A33G U122A,0.49
19,U2C A27G U132C,1.32
20,U2C A18U A126G,0.64
21,U2C A33G U70A,0.33
22,U2A G41A A60G A82U,0.31
23,U2C A47G A55G U72A C109U A117G,0.08
24,U2A G29A A69G A110G A126G,0.15

row,Variant,self-cleavage
1,U2C A56G A92U U130C,0.88
2,U2A A62U A68G A86G,1.23
3,U2C A67G A116U,0.19
4,U2C A51G A64U A69G A89U,0.68
5,U2C A24G A51G A78G,0.3
6,U2C A36G C46A A62G U87C A125G,0.13
7,U2C A47G A55U U127C A129G,0.06
8,U2A U12A A90U A91G A118U,0.77
9,U2C A5G A82G,0.52
10,U2A U3C A60G A78U U131C,0.36
11,U2A U39C A95G U103C,1.38
12,U2A U43C U127C A140U,0.69
13,U2C A18G U43C A56G,0.69
14,U2A U37C G44A,1.99
15,U2A A82U A126C,0.1
16,U2C A60G A68G,0.87
17,U2C A60G A117G,0.78
18,U2A A60G A96G U131C,1.48
19,U2C A36G A64G,1.67
20,U2C A59G U124C,0.46
21,U2A A66G U102C U103G,0.85
22,U2A A98G U108C,0.06
23,U2C A27U A86G U122C,0.86
24,U2A A47G A52G A66G U87C A89U,0.87

row,Variant,self-cleavage
1,U2C A24G A51G A78C U122C,0.24
2,U2C A5G A23U G58A A117G,1.24
3,U2A A56G C77U A116G U127A A135U,1.94
4,U2A U70C G99U,0
5,U2A A54G A82G,0.73
6,U2C A59G A68G A114G U122C A125G,0.05
7,U2C A23G U57A A91G U103C,0.07
8,U2A A69G U139C,0.92
9,U2C A56G G75A A78G G104A A110U,0.02
10,U2C A24U U49A A135C,1.29
11,U2C A23G A94U A95U A140G,1.45
12,U2C A68G U100C U120C,1.03
13,U2C A11G U43C,1
14,U2C A63G A78G A129G,0.17
15,U2C A63G A117G,1.62
16,U2C A22U U72C A126G,0.22
17,U2A A54G A111G A118U,0.02
18,U2C A30G A52G,2.06
19,U2C A47G U108C,0.01
20,U2A G20A A59G,1.15
21,U2C A47U A59U,0.12
22,U2C A5G A118G,0.68
23,U2C A22U A62U A86U,1.62
